Measured values: the supplement of paper PMC4604168 (melanoma cell lines)
This is one part of the list. Single values are uncertain, as repeats are few or missing.

test system: MeWo; assay: cell count relative to DMSO control; melanoma cells; higher = more viable cells; conditions: library dose: low library concentration; 72 h
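Also: cell number obtained by counting DAPI-stained nuclei in high-throughput microscope images with image analysis software, screen run in 1,536-well plates.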

Row | Structure (SMILES) | cell count
1 | Cn1cnc2c(F)c(Nc3ccc(Br)cc3Cl)c(C(=O)NOCCO)cc21 [selumetinib] + c1cc(-c2cnn3cc(-c4ccc(OCCN5CCCCC5)cc4)cnc23)ccn1 [Dorsomorphin] (first compound 0.015 µM, partner dose 0.4 µM) | 105%
2 | CCN(CC)CCNC(=O)c1c(C)[nH]c(/C=C2\C(=O)Nc3ccc(F)cc32)c1C [sunitinib] + CC(C)CCN1c2nc(Nc3cc(F)c(O)c(F)c3)ncc2N(C)C(=O)C1C [BID1870] (first compound 0.4 µM, partner dose 0.2 µM) | 77.2%
3 | COc1cc([C@@H]2c3cc4c(cc3[C@@H](O[C@@H]3O[C@@H]5CO[C@@H](C)O[C@H]5[C@H](O)[C@H]3O)[C@H]3COC(=O)[C@H]23)OCO4)cc(OC)c1O [etoposide] + COc1ccc(COc2ccc(Cc3cnc(N)nc3N)cc2OC)cc1 [GW2580] (first compound 0.02 µM, partner dose 1 µM) | 99.7%
4 | Cn1cnc2c(F)c(Nc3ccc(Br)cc3Cl)c(C(=O)NOCCO)cc21 [selumetinib] + NCC(=O)Nc1ccc(-n2nc(C(F)(F)F)cc2-c2ccc3c(ccc4ccccc43)c2)cc1 [OSU03012] (first compound 0.015 µM, partner dose 1 µM) | 57.3%
5 | COc1cc([C@@H]2c3cc4c(cc3[C@@H](O[C@@H]3O[C@@H]5CO[C@@H](C)O[C@H]5[C@H](O)[C@H]3O)[C@H]3COC(=O)[C@H]23)OCO4)cc(OC)c1O [etoposide] + O=C(CCCCCCC(=O)Nc1ccccc1)NO [vorinostat] (first compound 0.02 µM, partner dose 0.08 µM) | 96%
6 | C[C@]1(O)C[C@@H](c2nc(-c3ccc4ccc(-c5ccccc5)nc4c3)c3c(N)nccn32)C1 + CO[C@@H]1[C@H](N(C)C(=O)c2ccccc2)C[C@H]2O[C@]1(C)n1c3ccccc3c3c4c(c5c6ccccc6n2c5c31)C(=O)NC4 [Midostaurin] (first compound 0.4 µM, partner dose 0.08 µM) | 93.3%
7 | CCN(CC)CCNC(=O)c1c(C)[nH]c(/C=C2\C(=O)Nc3ccc(F)cc32)c1C [sunitinib] + C[C@@H]1CCN(C(=O)CC#N)C[C@@H]1N(C)c1ncnc2[nH]ccc12 [CP690550] (first compound 0.4 µM, partner dose 1 µM) | 101%
8 | Cn1cnc2c(F)c(Nc3ccc(Br)cc3Cl)c(C(=O)NOCCO)cc21 [selumetinib] + CCc1ccc(CCOc2ccc(CC3SC(=O)NC3=O)cc2)nc1 [pioglitazone] (first compound 0.015 µM, partner dose 2 µM) | 92.6%
9 | C[C@]1(O)C[C@@H](c2nc(-c3ccc4ccc(-c5ccccc5)nc4c3)c3c(N)nccn32)C1 + CCN(CC)CCCCNc1ncc2cc(-c3cc(OC)cc(OC)c3)c(NC(=O)NC(C)(C)C)nc2n1 [PD173074] (first compound 0.4 µM, partner dose 0.1 µM) | 87.4%
10 | COc1cc([C@@H]2c3cc4c(cc3[C@@H](O[C@@H]3O[C@@H]5CO[C@@H](C)O[C@H]5[C@H](O)[C@H]3O)[C@H]3COC(=O)[C@H]23)OCO4)cc(OC)c1O [etoposide] + CN(NC(=O)CC(=O)NN(C)C(=S)c1ccccc1)C(=S)c1ccccc1 [STA4783] (first compound 0.02 µM, partner dose 0.006 µM) | 92.5%
11 | C[C@]1(O)C[C@@H](c2nc(-c3ccc4ccc(-c5ccccc5)nc4c3)c3c(N)nccn32)C1 + Cc1cc([N+](=O)[O-])ccc1NS(=O)(=O)c1cc(Cl)ccc1Cl [FH535] (first compound 0.4 µM, partner dose 1 µM) | 92.7%
12 | CCN(CC)CCNC(=O)c1c(C)[nH]c(/C=C2\C(=O)Nc3ccc(F)cc32)c1C [sunitinib] + COC(=O)c1sccc1S(=O)(=O)Nc1ccc(Nc2ccccc2)cc1OC [GSK0660] (first compound 0.4 µM, partner dose 1 µM) | 92.2%
13 | Cn1cnc2c(F)c(Nc3ccc(Br)cc3Cl)c(C(=O)NOCCO)cc21 [selumetinib] + COc1cc2c(Oc3ccc4[nH]c(C)cc4c3F)ncnc2cc1OCCCN1CCCC1 [cediranib] (first compound 0.015 µM, partner dose 0.4 µM) | 98.5%
14 | Cn1cnc2c(F)c(Nc3ccc(Br)cc3Cl)c(C(=O)NOCCO)cc21 [selumetinib] + COc1cc2ncnc(Nc3ccc(Oc4ccccc4)cc3)c2cc1OC [SrcI1] (first compound 0.015 µM, partner dose 2 µM) | 81.6%
15 | Cn1cnc2c(F)c(Nc3ccc(Br)cc3Cl)c(C(=O)NOCCO)cc21 [selumetinib] + NC(=O)Nc1cc(-c2cccc(F)c2)sc1C(=O)N[C@H]1CCCNC1 [AZD7762] (first compound 0.015 µM, partner dose 0.02 µM) | 91.8%
16 | COc1cc([C@@H]2c3cc4c(cc3[C@@H](O[C@@H]3O[C@@H]5CO[C@@H](C)O[C@H]5[C@H](O)[C@H]3O)[C@H]3COC(=O)[C@H]23)OCO4)cc(OC)c1O [etoposide] + Cn1cncc1[C@@](N)(c1ccc(Cl)cc1)c1ccc2c(c1)c(-c1cccc(Cl)c1)cc(=O)n2C [tipifarnib] (first compound 0.02 µM, partner dose 0.01 µM) | 92%
17 | CCN(CC)CCNC(=O)c1c(C)[nH]c(/C=C2\C(=O)Nc3ccc(F)cc32)c1C [sunitinib] + O=C(CCCCCCC(=O)Nc1ccccc1)NO [vorinostat] (first compound 0.4 µM, partner dose 0.08 µM) | 90.4%
18 | COc1cc([C@@H]2c3cc4c(cc3[C@@H](O[C@@H]3O[C@@H]5CO[C@@H](C)O[C@H]5[C@H](O)[C@H]3O)[C@H]3COC(=O)[C@H]23)OCO4)cc(OC)c1O [etoposide] + Cc1cc([N+](=O)[O-])ccc1NS(=O)(=O)c1cc(Cl)ccc1Cl [FH535] (first compound 0.02 µM, partner dose 1 µM) | 96.8%
